# Assay results from the supplement of paper PMC12462457.
# Structures can show the parent of a compound that is named as a salt. ± gives the standard deviation of the averaged measurements. This is one part of the list.
# Tested on: OVCAR8
# Assay: cell count relative to DMSO vehicle (fold change); OVCAR8 is a high-grade serous ovarian cancer line and CX-5461 an RNA polymerase I inhibitor; higher = more surviving senescent cells (less killing)
# Conditions: senescence inducer: CX-5461 3 µM 48 h, then 6 d recovery (CX senescent), exposure time 24 h
SMILES,cell count (compound dose 1 µM),cell count (compound dose 5 µM)
Oc1ccc(C2=Cc3ccc(O)cc3OC2)cc1 [Phenoxodiol],1.09 ± 0.15,1.08 ± 0.1
O=C(O)c1cc(O)c(O)c(O)c1,1.16 ± 0.16,1.22 ± 0.03
COc1cc(C(=O)O)cc(O)c1O [3-O-Methylgallic acid],1.15 ± 0.14,1.07 ± 0.022
Cc1c(C)c2c(c(C)c1O)CC[C@@](C)(CCC[C@H](C)CCC[C@H](C)CCCC(C)C)O2 [α-Vitamin E],1.06 ± 0.029,1.11 ± 0.24
Cc1cc(CS(=O)(=O)c2ccccc2)cc(OCc2ccc(CN3CCC[C@@H]3CO)cc2)c1 [PF-543 (Citrate)],1.16 ± 0.11,1.1 ± 0.042
Cc1cc(CS(=O)(=O)c2ccccc2)cc(OCc2ccc(CN3CCC[C@@H]3CO)cc2)c1,1.13 ± 0.12,1.16 ± 0.081
NC(=O)NO,1.06 ± 0.088,1.17 ± 0.16
C[C@@H]1CC[C@@]2(OC1)O[C@H]1C[C@H]3[C@@H]4CC=C5C[C@@H](O[C@@H]6O[C@H](CO)[C@@H](O)[C@H](O[C@@H]7O[C@H](CO)[C@@H](O)[C@H](O)[C@H]7O)[C@H]6O[C@@H]6O[C@@H](C)[C@H](O)[C@@H](O)[C@H]6O)CC[C@]5(C)[C@H]4CC[C@]3(C)[C@H]1[C@@H]2C [Gracillin],1.04 ± 0.16,0.8295 ± 0.0021
CC(C)(C)c1cc(NC(=O)Nc2ccc(-c3cccc4c(N)nccc34)cc2)no1,1.06 ± 0.23,0.9 ± 0.22
COc1c(OC)c2occc2c2oc(=O)ccc12,0.92 ± 0.081,1.07 ± 0.28
Cc1ccccc1C(=O)N1CCc2cc(-c3nc(NC(=O)Cc4ccc5c(c4)OCO5)sc3C)ccc21,1.017 ± 0.0057,1 ± 0.17
Nc1nc(Nc2ccc(S(N)(=O)=O)cc2)nn1C(=O)c1c(F)cccc1F,0.797 ± 0.15,0.45 ± 0.24
Cc1[nH]c(/C=C2\C(=O)Nc3ccc(S(=O)(=O)Cc4c(Cl)cccc4Cl)cc32)c(C)c1C(=O)N1CCC[C@@H]1CN1CCCC1,1.22 ± 0.19,0.554 ± 0.19
CC(C)[C@H](NC(=O)c1ccc2ccccc2n1)C(=O)N[C@@H](CC(=O)O)C(=O)COc1c(F)cccc1F,0.949 ± 0.15,0.907 ± 0.21
Cc1ccc(NC(=S)NNc2c([N+](=O)[O-])cc(C(F)(F)F)cc2[N+](=O)[O-])cc1Cl,1.17 ± 0.12,1.2 ± 0.32
COc1c(O)cc(O)c2c(=O)cc(-c3ccccc3)oc12 [Wogonin],1.07 ± 0.23,0.926 ± 0.2
CCOc1nc2cccc(C(=O)OC(C)OC(=O)OC3CCCCC3)c2n1Cc1ccc(-c2ccccc2-c2nn[nH]n2)cc1 (stereo unspecified) [Candesartan Cilexetil],1.08 ± 0.069,1.13 ± 0.24
COc1ccc(-c2oc3c(CC=C(C)C)c(O)cc(O)c3c(=O)c2O)cc1 [Icaritin],1.16 ± 0.19,1.14 ± 0.3
CCCNS(=O)(=O)Nc1ncnc(OCCOc2ncc(Br)cn2)c1-c1ccc(Br)cc1 [Macitentan],1.09 ± 0.43,1.08 ± 0.21
COC(=O)c1c2c(c3ccccc3c1O)OC(C)(C)C=C2 [Mollugin],0.845 ± 0.073,0.078 ± 0.025
CC1(C)CCN(CCOc2ccc3[nH]ccc3c2)c2ccc(-c3cccnc3)cc21,1.14 ± 0.081,1.15 ± 0.053
COc1ccc(/C=C/C(=O)C2(C(=O)/C=C/c3ccc(OC)c(OC)c3)CCCCC2)cc1OC,1.07 ± 0.03,0.862 ± 0.037

SMILES,cell count (compound dose 1 µM),cell count (compound dose 5 µM)
CC(C)C(C(=O)O)N1C(=O)C(=Cc2ccc(Br)cc2)SC1=S (stereo unspecified),1.07 ± 0.26,1.01 ± 0.097
Nc1ncnc2c1c(-c1cccc(OCc3ccccc3)c1)cn2C1CC(CN2CCCC2)C1 (stereo unspecified),1.02 ± 0.21,0.966 ± 0.11
Cc1cc2ncnn2cc1Nc1ncc2c(n1)n(C1CCOCC1)c(=O)n2C,1.24 ± 0.33,1.21 ± 0.34
CC(=O)O[C@H]1CC[C@]2(C)[C@H]3CC=C4[C@@H]5CC(C)(C)CC[C@]5(C(=O)O)CC[C@@]4(C)[C@]3(C)CC[C@H]2C1(C)C,1.029 ± 0.0042,1.01 ± 0.1
O=C(Nc1cc(Cl)cc2c1[nH]c1cnccc12)c1cccnc1,1.18 ± 0.013,1.161 ± 0.0057
C[C@@H]1CC[C@]2(C(=O)O[C@@H]3O[C@H](CO)[C@@H](O)[C@H](O)[C@H]3O)CC[C@]3(C)C(=CC[C@@H]4[C@@]5(C)CC[C@H](O[C@@H]6OC[C@H](O)[C@H](O)[C@H]6O)C(C)(C)[C@@H]5CC[C@]43C)[C@@H]2[C@]1(C)O [Ziyuglycoside I],0.787 ± 0.0085,1.12 ± 0.23
O=S(=O)(NCCN1CCNCC1)c1ccc(NC2CCCCC2)c(NCc2ccccc2)c1 [UAMC-3203 hydrochloride],1.04 ± 0.16,1.06 ± 0.021
COc1cc(N2CCC(N3CCN(C)CC3)CC2)ccc1Nc1ncc(Cl)c(Nc2ccccc2S(=O)(=O)C(C)C)n1,1.09 ± 0.073,1.02 ± 0.23
CC(C)c1nc(CN(C)C(=O)N[C@H](C(=O)N[C@@H](Cc2ccccc2)C[C@H](O)[C@H](Cc2ccccc2)NC(=O)OCc2cncs2)C(C)C)cs1 [Ritonavir],0.999 ± 0.041,0.943 ± 0.02
COc1ccc(CCCOC(Cn2ccnc2)c2ccc(OC)cc2)cc1 (stereo unspecified),1.1 ± 0.099,1.15 ± 0.12
COc1c(O)cc2c(c1O)[C@@H]1O[C@H](CO)[C@@H](O)[C@H](O)[C@H]1OC2=O [Bergenin],1.16 ± 0.064,1.13 ± 0.23
O=c1c(N=Nc2nccs2)c(-c2ccccc2)[nH]n1-c1nc(-c2ccccc2)cs1,1.1 ± 0.14,1.03 ± 0.24
COc1cc(C[C@H]2C(=O)OC[C@@H]2Cc2ccc(OC)c(OC)c2)ccc1O [Arctigenin],1.17 ± 0.14,0.922 ± 0.24
CO[C@H]1CC[C@H](N2C(=O)CNc3ncc(-c4ccc(C(C)(C)O)nc4)nc32)CC1,1.08 ± 0.031,1.13 ± 0.1
COc1ccc(NS(=O)(=O)c2c(F)c(F)c(F)c(F)c2F)cc1F [Batabulin (sodium)],1.08 ± 0.1,1.17 ± 0.044
COc1ccc(NS(=O)(=O)c2c(F)c(F)c(F)c(F)c2F)cc1F [Batabulin],1.14 ± 0.14,1.12 ± 0.03
CC(=O)Cc1cc(=O)c2c(C)cc(O)c([C@@H]3O[C@H](CO)[C@@H](O)[C@H](O)[C@H]3O)c2o1 [Aloesin],1.01 ± 0.31,0.9 ± 0.29
O=C(NC1CCNCC1)c1n[nH]cc1NC(=O)c1c(Cl)cccc1Cl,1.09 ± 0.013,1.05 ± 0.024
CC[C@@H](N)CNc1ccnc(-c2cc(-c3cnn(C)c3)ccc2O)n1,1.05 ± 0.11,0.858 ± 0.018
O=C(O)/C=C/c1ccc(-c2ccc(O)c(C34CC5CC(CC(C5)C3)C4)c2)cc1 [Adarotene],0.999 ± 0.32,1.02 ± 0.26
Oc1cccc(O)c1O [Pyrogallol],1.17 ± 0.14,1.11 ± 0.17
